# Assay results as given in PubChem BioAssay AID624173 (National Center for Advancing Translational Sciences (NCATS), 2012).
# Screen size: about 410,000 compounds; about 490 (0.12%) were called active. Inconclusive means that the source gave no clear call. Such entries were picked first, then a sample of the others. Calls come from the whole dose curve; as a rule, active = well fitted inhibition curve with a large enough effect; inconclusive = small, poorly fitted or top-dose-only effect; inactive = flat fitted curve, though single readings scatter. Where the call is inconclusive, the potency comes from a doubtful curve fit.
# Biological target: pyruvate kinase (Trypanosoma brucei) (UniProt Q57TT1)
# Assay: qHTS of Trypanosoma Brucei Inhibitors
# Settings: TbPYK enzyme, Kinase-Glo Plus ATP luminescence, 45 min; series mostly up to 76.8 µM
# Excerpt: Members of the Trypanosomatidae family of parasitic protozoans cause a spectrum of diseases throughout the tropical and subtropical world. Sleeping sickness, caused by two subspecies of Trypanosoma brucei, is endemic to areas of sub-Saharan Africa, while Chagas' disease, a manifestation of Trypanosoma cruzi infection, is prevalent throughout Central and South America. In addition, many species of Leishmania are responsible for a range of cutaneous and visceral diseases, causing ulcers, destructive lesions and kalaazar, a lethal infection of the viscera. These diseases cause severe public health and economic burdens on populations that are often already caught in a tragic cycle of poverty, poor nutrition and disease. Collectively, parasites of the trypanosomatid family infect 30 million people worldwide (~500 million live in endemic areas), and account for ~130K deaths annually. Existing treatments have developed little in the past 50 years, and suffer from toxicity, poor efficacy and resistance; the goal of this project is to develop lead drugs that will be suitable for entry into pre-clinical trials.
# Glycolysis in axenically cultured T. cruzi, representing the intracellular pathogenic stage, is also essential for these parasites. {Engel, 1987} This project aims to discover and optimize selective inhibitors of the glycolytic enzyme pyruvate kinase (PYK) from Trypanosoma brucei, the parasite that causes sleeping sickness. […] Trypanosomatid PYKs show significant differences from their human counterparts including only 47-50% sequence identity and different allosteric and activation properties.{Callens, 1992} To this end, a qHTS was done against the MLSMR to discover inhibitors.
# NIH Molecular Libraries Probe Production Network [MLPCN]
# NIH Chemical Genomics Center [NCGC]
# PI Name: Malcolm Walkinshaw, University of Edinburgh
# 2 uL of TbPYK/substrate buffer (columns 1-3, 5-48) are dispensed into Greiner white solid bottom 1536-well assay plates; column 4 receives only TEA buffer as 0x TbPYK controls. Compounds are then transferred via Kalypsys pin tool equipped with 1536-pin array (10 nL slotted pins, V&P Scientific, San Diego, CA). Following addition of compound, 2 uL of ADP (130 uM final concentration, all columns) is added to initiate the reaction. The plates are then incubated at room temperature for 45 minutes. Kinase-Glo Plus reagent is added (3 uL) and plates incubated for 10 minutes, before being transferred to a ViewLux high-throughput CCD imager (PerkinElmer) wherein single end-point measurements of luminescence are acquired using a clear filter. All reagents are diluted in an assay buffer consisting of 50 mM TEA (pH 7.2), 100 mM KCl, 10 mM MgCl2, 0.05% BSA and 0.01% Tween-20.
# All screening operations will be performed on a fully integrated robotic system (Kalypsys, San Diego, CA) containing one RX-130 and two RX-90 anthropomorphic robotic arms (Staeubli, Duncan, SC). Library plates will be screened starting from the lowest and proceeding to the highest concentration. Vehicle-only plates, with DMSO being pin-transferred to columns 5-48, will be inserted uniformly at the beginning and the end of each library in order to monitor and record any shifts in the background, which can be affected by reagent dispensers or loss in enzyme activity over time. Screening data will be corrected, normalized, and concentration-effect relationships will be derived by using publicly-available curve fitting algorithms developed in-house (http://ncgc.nih.gov/pub/openhts).
# % is set by controls: 0 for no effect and ±100 for the full control effect; potency is the fitted concentration of half-maximal effect; tags give direction and shape of the fitted curve.
SMILES,Potency,"activity, negative = inhibition"
CCOc1ccc(S(=O)(=O)N2CCC(C(=O)NCCN3CCOCC3)CC2)cc1C,inactive,–
COc1ccc(C(=O)CCC(=O)O)c2ccccc12,inactive,–
O=C(CNC(=O)c1ccc(F)cc1)NCc1ccc(S(=O)(=O)N2CCOCC2)cc1,"inconclusive: 1.78 µM [inhibitor, partial curve, poor fit]",–
C=CCN(N=Nc1cccc([N+](=O)[O-])c1)c1cccc([N+](=O)[O-])c1,"inconclusive: 44.7 µM [inhibitor, single point]",–
CCOC(=O)c1[nH]c2cc3c(cc2c1NC(=O)CN1CCCC1)OCO3,"inconclusive: 1.12 µM [inhibitor, partial curve, poor fit]",–
COc1cc(CN2CCCN(C)CC2)c([N+](=O)[O-])cc1OC,"inconclusive: 11.2 µM [inhibitor, partial curve]",–
S=c1[nH]nc(C2CC2)n1Cc1ccccc1,"inconclusive: 3.55 µM [inhibitor, full curve]",–
S=c1[nH]c2cnccc2n1Cc1ccccc1,"inconclusive: 6.31 µM [inhibitor, partial curve, poor fit]",–
CCC(=O)NC(=S)Nc1cccc(NC(=O)c2ccco2)c1,inactive,–
C=CCN1C(=O)/C(=C/c2ccc(OC(C)=O)c(OCC)c2[N+](=O)[O-])SC1=S,inactive,–
Cc1cc(C=C2C(=O)N(C)C(=O)N(C)C2=O)c(C)n1-c1ccccc1,inactive,–
COC1=CC(=O)C(C2CC(=O)c3c(O)cc(O)cc3O2)=CC1=O (centres undefined),"inconclusive: 31.6 µM [inhibitor, partial curve, poor fit]",–
CCCC(=O)c1cc(O)c(O)cc1O,"inconclusive: 89.1 µM [inhibitor, single point]",–
c1ccc(Cc2nc3ccccc3s2)cc1,"inconclusive: 17.8 µM [inhibitor, partial curve]",–
Cc1cc(C)c(OCCCCCNCCO)c(C)c1,"inconclusive: 44.7 µM [inhibitor, single point]",–
Cc1ccc(C(C)C)cc1OCC(=O)Nc1ccc(-n2cnnn2)cc1,inactive,–
COc1ccc(NC(=O)c2c(NCc3cccs3)sc3c2CCCC3)cc1,"inconclusive: 12.6 µM [inhibitor, partial curve]",–
O=C(CSc1nc2ccccc2n1CCc1ccccc1)c1ccc(O)c(O)c1,"inconclusive: 5.01 µM [inhibitor, full curve]",–
CCC(=O)Nc1ccc(C(=O)CSc2nnc(-c3ccccc3F)n2CCc2ccccc2)cc1,"inconclusive: 25.1 µM [inhibitor, partial curve, poor fit]",–
Cc1cccc(Cn2c(=O)n(Cc3ccc4c(c3)OCO4)c(=O)c3oc4ccccc4c32)c1,inactive,–
Cc1cccc(N2C(=O)NC(=O)/C(=C\c3cnn(-c4ccccc4)c3)C2=O)c1,"inconclusive: 50.1 µM [inhibitor, single point]",–
COc1ccccc1-n1c(CNC(=O)COc2ccccc2)n[nH]c1=S,"inconclusive: 12.6 µM [inhibitor, partial curve]",–
CCOc1ccccc1CNC(=O)CCCN1C(=O)c2cccnc2Oc2ccc(Cl)cc21,–,inactive: 4.93% [at 15.4 µM]
Cc1csc(NC(=O)c2ccoc2C)n1,"inconclusive: 25.1 µM [inhibitor, partial curve]",–
CC(C)Cc1ccc(C(C)C(=O)Nc2cccnc2)cc1 (centres undefined),inactive,–

SMILES,Potency,"activity, negative = inhibition"
O=c1c2cc(C(F)(F)F)ccc2sn1-c1ccccc1,active: 7.08 µM,–
O=C1NC(=O)C(Cc2cccs2)C(=O)N1,"inconclusive: 28.2 µM [inhibitor, single point]",–
CS(=O)(=O)Nc1ccc(C(=O)NCCC2=CCCCC2)cc1,inactive,–
COCCCNC(=S)N1CCC(C(=O)c2ccc(Cl)cc2)CC1,"inconclusive: 3.98 µM [inhibitor, full curve, poor fit]",–
COc1ccccc1N1C(=O)CC(Sc2n[nH]c(-c3cccc(C)c3)n2)C1=O (centres undefined),"inconclusive: 12.6 µM [inhibitor, partial curve]",–
CC1(C)CC(=O)C2=C(C1)NC1=C(C(=O)c3ccccc31)C2c1ccc(O)cc1 (centres undefined),"inconclusive: 44.7 µM [inhibitor, partial curve, poor fit]",–
CSc1ccccc1C(=O)NC(C)c1ccc(-n2ccnc2)cc1 (centres undefined),inactive,–
CC(=O)c1cccc(NC(=O)CCS(=O)(=O)c2cccc3nsnc23)c1,"inconclusive: 35.5 µM [inhibitor, single point]",–
Cc1cccc(NC(=O)C2CCCN(S(=O)(=O)c3ccc4c(c3)oc(=O)n4C)C2)c1 (centres undefined),inactive,–
O=C(O)CCSc1nc2ccccc2s1,inactive,–
N#CC1(NC(=O)COC(=O)c2cc(O)c3ccccc3c2O)CCCCC1,active: 28.2 µM,–
S=c1[nH]nc(CSc2nc3ccccc3s2)n1C1CCCCC1,"inconclusive: 5.01 µM [inhibitor, partial curve]",–
O=[N+]([O-])c1nn(-c2ccc3c(c2)OCCO3)n(O)c1=Nc1ccc(Cl)cc1,inactive,–
CN1/C(=C\C(=S)Nc2ccccc2)C(C)(C)c2ccccc21,"inconclusive: 7.94 µM [inhibitor, full curve]",–
C=CCNC(=S)N/N=C/c1ccc(-c2cccc([N+](=O)[O-])c2)o1,inactive,–
CCOC(=O)/C(=C\c1cccc(O)c1)c1nc2sc(C)c(C)c2c(=O)[nH]1,"inconclusive: 8.91 µM [inhibitor, partial curve]",–
CCN(/C(N)=N/c1nc(C)cc(C)n1)c1ccccc1,inactive,–
Nc1ccc(N2CCCC2)c(S(=O)(=O)Nc2cccc(C(F)(F)F)c2)c1,"inconclusive: 39.8 µM [inhibitor, partial curve, poor fit]",–
CC(=O)c1ccc(NC(=O)/C=C/c2ccc(C)o2)cc1,"inconclusive: 31.6 µM [inhibitor, single point]",–
O=C(Nc1ccc2oc(-c3ccccc3)nc2c1)c1ccncc1,inactive,–
Fc1ccccc1SCc1nnc(-c2ccccc2Br)o1,active: 31.6 µM,–
O=C(Nc1ccccc1)Nc1nnc(CSCc2ccccc2Cl)s1,inactive,–
COc1ccc(CCNC(=O)c2cc(-c3ccco3)nc3ccccc23)cc1,"inconclusive: 25.1 µM [inhibitor, partial curve, poor fit]",–
CCC1C(=O)NCCN1C(=O)c1cccc(OC2CCN(S(=O)(=O)N(C)C)CC2)c1 (centres undefined),inactive,–
Cc1ccc(-n2c(-c3ccccc3)n[nH]c2=S)cc1,"inconclusive: 8.91 µM [inhibitor, partial curve, poor fit]",–

SMILES,Potency,"activity, negative = inhibition"
CCOC(=O)N1CCN(C(=O)CCSc2ccc(C)cc2)CC1,"inconclusive: 50.1 µM [inhibitor, single point]",–
Cc1nc(-c2ccc(NC(=O)/C=C\C(=O)O)cc2)cs1,"inconclusive: 50.1 µM [inhibitor, single point]",–
CN1C(=O)c2ccccc2Sc2ccc(NC(=O)N3CCN(c4cccc(Cl)c4)CC3)cc21,inactive,–
CCC1CCCCN1S(=O)(=O)c1ccc(C(=O)Nc2nnc(-c3cccs3)o2)cc1 (centres undefined),inactive,–
CCC(C)NC(=O)Cn1c(COc2ccc(Cl)cc2Cl)nc2ccccc21 (centres undefined),inactive,–
O=C1Nc2ccccc2/C1=N\N=C\c1ccc(O)c(O)c1,"inconclusive: 17.8 µM [inhibitor, partial curve, poor fit]",–
Cc1ccnn1CC(=O)N/N=C/c1cn[nH]c1-c1ccccc1,"inconclusive: 50.1 µM [inhibitor, single point]",–
O=C(CCNS(=O)(=O)c1ccc2c(c1)CCCC(=O)N2)NCc1ccc(Cl)cc1,inactive,–
N#Cc1c(-c2ccccc2)nc(SCc2nc(N)nc(N3CCCCC3)n2)[nH]c1=O,"inconclusive: 31.6 µM [inhibitor, single point]",–
CCc1nnc(NC(=O)c2ccc(S(C)(=O)=O)cc2)s1,"inconclusive: 50.1 µM [inhibitor, single point]",–
CCc1nnc(NC(=O)C(C)Sc2ccccc2)s1 (centres undefined),inactive,–
Cc1oc2c(C)c3oc(=O)c(CCC(=O)N4CCCCC4)c(C)c3cc2c1C,inactive,–
COc1ccc(C2=CC(=O)C[C@H](c3ccc(OC)c(OC)c3)C2)cn1,"inconclusive: 5.01 µM [inhibitor, partial curve, poor fit]",–
CN(c1ccccc1)S(=O)(=O)c1cccc(NC(=O)Cc2ccc(Cl)cc2)c1,"inconclusive: 11.2 µM [inhibitor, partial curve, poor fit]",–
O=C(Cn1nnc(-c2ccccc2F)n1)OCC(=O)c1ccccc1,inactive,–
CCc1cnc2c(c1SC(C(C)=O)C(=O)N(C)C)c(=O)n(C)c(=O)n2C (centres undefined),active: 14.1 µM,–
CN(Cc1ccc2ccccc2c1)C(=O)c1ccc(C(F)(F)F)cc1,inactive,–
Cc1cc(N2CCOCC2)ccc1/C=C1\C(=O)NC(=O)N(c2ccccc2)C1=O,"inconclusive: 50.1 µM [inhibitor, single point]",–
O=c1c2c([N+](=O)[O-])cc([N+](=O)[O-])cc2sn1-c1ccc(Br)cc1,active: 3.98 µM,–
O=C(CSc1nnc(-c2ccco2)c(-c2ccco2)n1)c1ccccc1,"inconclusive: 12.6 µM [inhibitor, partial curve]",–
Cc1sc2ncnc(N3CCC(C(=O)N(C)CC(=O)Nc4ccccc4Cl)CC3)c2c1C,inactive,–
O=C(O)CNC(=O)CC1S/C(=N/N=C/c2ccccc2O)NC1=O (centres undefined),"inconclusive: 39.8 µM [inhibitor, single point]",–
CN(C)c1ncc(C2=C(Cl)C(=O)C(N3CCCC3)=C(Cl)C2=O)s1,"inconclusive: 44.7 µM [inhibitor, single point]",–
CCCCN1CC(COCc2ccccc2)Oc2cc(Br)ccc2S1(=O)=O (centres undefined),inactive,–
